According to PubChem BioAssay (NCI):
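Dose response: 5 concentrations. Exposure: 48 h. Format: 96-well plates. Endpoint: linear interpolation; highest concentration if not reached. At the GI50, growth is halved. TGI: total growth inhibition.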

Test system: NCI-H322M lung
Test: growth of human tumour cells (NCI), 48 h

In the case of `CCOc1ccc(/C=N/NC(=O)Cn2nc(Cc3ccc([N+](=O)[O-])cc3)c3onc(C)c3c2=O)cc1`, the GI50 is reported as > 100 µM and the TGI is reported as > 100 µM.
